# Data published in the supplement of paper PMC9446081.
# In all, about 39,000 compounds went through this assay and about 220 (0.56%) showed activity. The list shows a part of the results.
# Test system: Escherichia coli K-12 BW25113
# Experiment: relative growth (OD600 normalised to plate interquartile mean) (fraction); higher = less growth inhibition, active = 0.2 or less
# Conditions: 50 µM; LB; incubation time: overnight (16-24 h)
# 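Further: static incubation at 37 °C against the wild-type strain, values averaged over two biological replicates.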
row,SMILES,relative growth
1,COC(=O)[C@H](Cc1ccc(-n2cc(C(=O)NO)nn2)cc1)N[C@H](/C=C/C1CC1)[C@@H](O)Cc1ccccc1,inactive: 1.01
2,CC(C)NC(=O)N(C)C[C@@H]1Oc2ccc(NC(=O)c3ccncc3)cc2CC(=O)N([C@@H](C)CO)C[C@H]1C,inactive: 0.947
3,CCN(CC)CCNC(=O)c1cc(S(C)(=O)=O)ccc1OC.Cl,inactive: 1.12
4,C[C@@H]1CN([C@H](C)CO)C(=O)c2cc(NS(=O)(=O)c3cn(C)cn3)ccc2O[C@@H]1CN(C)S(=O)(=O)c1ccc(F)cc1,inactive: 1
5,Cc1noc(C)c1S(=O)(=O)Nc1cccc2c1O[C@H](CN(C)CC1CC1)[C@H](C)CN([C@H](C)CO)C2=O,inactive: 0.998
6,O=C(CS)NCCCCCNC(=O)[C@H]1C[C@H]2C(=O)NCC(=O)N2[C@H]1c1cccc(OCCO)c1,inactive: 0.929
7,C[C@H](CO)N1C[C@H](C)[C@@H](CN(C)Cc2ccc(C(=O)O)cc2)Oc2c(NC(=O)Nc3cccc4ccccc34)cccc2C1=O,inactive: 0.77
8,CN(C)c1ccnc(CNS(C)(=O)=O)n1,inactive: 1.06
9,C[C@H]1CN([C@@H](C)CO)C(=O)c2cc(NC(=O)CCC(F)(F)F)ccc2O[C@H]1CN(C)Cc1ccc(Oc2ccccc2)cc1,inactive: 0.998
10,Cc1ccc(S(=O)(=O)Nc2ccc3c(c2)C(=O)N([C@@H](C)CO)C[C@H](C)[C@@H](CN(C)S(C)(=O)=O)OCCCC[C@@H](C)O3)cc1,inactive: 1.02
11,CCCN(C)C[C@H]1OCCCC[C@@H](C)Oc2ccc(NS(C)(=O)=O)cc2C(=O)N([C@H](C)CO)C[C@@H]1C,inactive: 1.01
12,Cc1noc(C)c1NC(=O)Nc1ccc2c(c1)C(=O)N([C@H](C)CO)C[C@@H](C)[C@@H](CN(C)Cc1ccc(C(=O)Nc3ccccc3N)cc1)O2,inactive: 0.991
13,C[C@H]1CN([C@@H](C)CO)C(=O)c2cc(NC(=O)Nc3ccc(C(F)(F)F)cc3)ccc2O[C@H]1CN(C)C(=O)Nc1ccc2c(c1)OCO2,inactive: 1.04
14,CCn1c(=S)[nH]c2ccccc21,inactive: 0.895
15,CC(=O)N1CCCC(=O)CC1,inactive: 1.02
16,O=C(N[C@H](c1ccc(Cl)cc1)c1cnccn1)C1CCN(Cc2ccc(Oc3ccccc3)cc2)CC1,inactive: 1.02
17,COc1ccc2c3c([nH]c2c1)[C@@H](CO)N(C[C@]13CN(Cc2ccccc2F)C1)S(=O)(=O)c1cn(cn1)C,inactive: 0.993
18,C[C@H]1CN([C@@H](C)CO)C(=O)Cc2cc(NC(=O)Nc3cccc4ccccc34)ccc2O[C@H]1CN(C)Cc1ccncc1,inactive: 1.02
19,O=C(N[C@@H]1CC[C@@H](CC(=O)N2CCOCC2)O[C@@H]1CO)c1ccccn1,inactive: 0.975
20,C[C@@H]1CC[C@@]2(OC1)O[C@H]1C[C@H]3[C@H]4C[C@@H](O)[C@H]5C[C@@H](O[C@@H]6O[C@H](CO)[C@H](O[C@@H]7O[C@H](CO)[C@@H](O)[C@H](O[C@@H]8OC[C@@H](O)[C@H](O)[C@H]8O)[C@H]7O[C@@H]7O[C@H](CO)[C@@H](O[C@@H]8O[C@H](CO)[C@@H](O)[C@H](O)[C@H]8O)[C@H](O)[C@H]7O)[C@H](O)[C@H]6O)CC[C@]5(C)[C@@H]4CC[C@]3(C)[C@H]1[C@@H]2C,inactive: 0.975

row,SMILES,relative growth
1,C[C@@H]1CN([C@@H](C)CO)S(=O)(=O)c2ccc(Br)cc2O[C@@H]1CN(C)C(=O)c1cnccn1,inactive: 1
2,C[C@@H]1CCCCO[C@@H](CN(C)Cc2ccc(C(F)(F)F)cc2)[C@@H](C)CN([C@H](C)CO)C(=O)c2cc(N(C)C)ccc2O1,inactive: 1.03
3,COc1cccc(S(=O)(=O)N[C@@H]2CC[C@@H](CC(=O)NC3CCC3)O[C@H]2CO)c1,inactive: 1.02
4,C[C@@H]1CCCCO[C@@H](CN(C)S(=O)(=O)c2ccc(Cl)cc2)[C@H](C)CN([C@@H](C)CO)C(=O)c2cc(NC(=O)Nc3ccc(C(F)(F)F)cc3)ccc2O1,inactive: 1.06
5,O=C1CCCC2C3CCC[N+]4([O-])CCCC(CN12)C34 (stereo not drawn),inactive: 1
6,C#CCCCCCCCCCCCC(O)CC(O)CO (stereo not drawn),inactive: 0.801
7,CCCNC(=O)N(C)C[C@H]1Oc2cc(C#Cc3cccc(F)c3)ccc2S(=O)(=O)N([C@@H](C)CO)C[C@H]1C,inactive: 0.992
8,COc1ccc(-c2cnc3c(c2)C(=O)N([C@H](C)CO)C[C@H](C)[C@@H](CN(C)C(=O)Cc2cccnc2)O3)cc1,inactive: 1.01
9,COc1ccc(S(=O)(=O)N(C)C[C@H]2Oc3ccc(NC(=O)CCN4CCOCC4)cc3C(=O)N([C@@H](C)CO)C[C@H]2C)cc1,inactive: 1.02
10,CC1OC(OCC2OC(Oc3c(-c4ccc(O)c(O)c4)oc4cc(O)cc(O)c4c3=O)C(O)C(O)C2O)C(O)C(O)C1O (stereo not drawn),inactive: 1.05
11,Cc1noc(C)c1NC(=O)Nc1ccc2c(c1)CC(=O)N([C@H](C)CO)C[C@H](C)[C@@H](CN(C)Cc1ccc(-c3ccccc3)cc1)O2,inactive: 0.968
12,CO[C@@H]1CN(C)C(=O)c2cc(NC(C)=O)ccc2OC[C@@H](C)N(S(=O)(=O)c2cn(C)cn2)C[C@@H]1C,inactive: 1.01
13,C[C@@H]1CN([C@@H](C)CO)C(=O)c2cc(NS(C)(=O)=O)ccc2O[C@@H](C)CCCCO[C@@H]1CN(C)S(=O)(=O)c1cccs1,inactive: 0.921
14,C[C@@H]1CN([C@@H](C)CO)C(=O)c2cc(NC(=O)Nc3ccc(C(F)(F)F)cc3)ccc2O[C@@H](C)CCCCO[C@@H]1CN(C)S(=O)(=O)c1ccccc1,inactive: 1.02
15,C[C@H]1CN([C@@H](C)CO)C(=O)Cc2cc(NC(=O)NC3CCCCC3)ccc2O[C@H]1CN(C)C(=O)Nc1cccc2ccccc12,inactive: 0.925
16,C[C@@H]1CCCCO[C@H](CN(C)Cc2ccc(C(=O)O)cc2)[C@H](C)CN([C@H](C)CO)C(=O)c2cc(NS(=O)(=O)c3ccccc3)ccc2O1,inactive: 0.991
17,C[C@@H]1CCCCO[C@H](CN(C)C(=O)Nc2ccc3c(c2)OCO3)[C@@H](C)CN([C@H](C)CO)C(=O)c2cc(NC(=O)CCC(F)(F)F)ccc2O1,inactive: 0.981
18,C[C@@H]1CN([C@H](C)CO)C(=O)c2cccc(NC(=O)Nc3ccc(C(F)(F)F)cc3)c2O[C@@H]1CN(C)C(=O)Nc1cccc2ccccc12,inactive: 0.884
19,C[C@@H]1CCCCO[C@@H](CN(C)CC2CC2)[C@H](C)CN([C@@H](C)CO)C(=O)c2cc(NS(=O)(=O)c3ccc(Cl)cc3)ccc2O1,inactive: 0.997
20,CCC(C)C1OC2(C=CC1C)CC1CC(CC=C(C)C(OC3CC(OC)C(OC4CC(OC)C(NC(C)=O)C(C)O4)C(C)O3)C(C)C=CC=C3COC4C(O)C(C)=CC(C(=O)O1)C34O)O2 (stereo not drawn),inactive: 0.997

row,SMILES,relative growth
1,NCC[C@@H]1CC[C@@H](NC(=O)c2ccccc2F)[C@H](CO)O1,inactive: 1.03
2,Cc1ccc(S(=O)(=O)N(C)C[C@@H]2OCCCC[C@@H](C)Oc3ccc(NC(=O)Nc4ccc(F)cc4)cc3C(=O)N([C@H](C)CO)C[C@@H]2C)cc1,inactive: 0.997
3,C[C@@H]1CN([C@H](C)CO)S(=O)(=O)c2ccc(C#CCN(C)C)cc2O[C@H]1CN(C)S(C)(=O)=O,inactive: 0.982
4,Cc1noc(C)c1NC(=O)N(C)C[C@@H]1Oc2ccc(NC(=O)CCN3CCOCC3)cc2CC(=O)N([C@@H](C)CO)C[C@H]1C,inactive: 1
5,CCS(=O)(=O)N1C[C@]2(CN(C2)C(=O)Nc2ccc3c(c2)OCO3)c2c(n(c3cc(ccc23)OC)C)[C@H]1CO,inactive: 0.979
6,COCC#Cc1cnc2c(c1)C(=O)N([C@@H](C)CO)C[C@H](C)[C@@H](CN(C)C(C)=O)O2,inactive: 0.984
7,CCCC(=O)Nc1ccc2c(c1)C(=O)N(C)C[C@H](OC)[C@H](C)CN(Cc1ccc(-c3ccccn3)cc1)[C@@H](C)CO2,inactive: 0.997
8,CCCN(C)C[C@@H]1OCCCC[C@@H](C)Oc2ccc(NC(=O)Nc3cccc4ccccc34)cc2C(=O)N([C@H](C)CO)C[C@@H]1C,inactive: 0.974
9,C[C@H]1CCCCO[C@H](CN(C)C(=O)Nc2ccc3c(c2)OCO3)[C@@H](C)CN([C@@H](C)CO)C(=O)c2cc(NC(=O)CCC(F)(F)F)ccc2O1,inactive: 0.955
10,COCC(=O)Nc1ccc2c(c1)C(=O)N(C)C[C@@H](OC)[C@H](C)CN(C(=O)Cc1ccccn1)[C@@H](C)CO2,inactive: 0.986
11,C[C@@H]1CN([C@H](C)CO)C(=O)c2cc(NC(=O)Cn3cnnn3)ccc2O[C@H]1CN(C)S(=O)(=O)c1ccccc1,inactive: 0.979
12,O=C(C[C@@H]1CC[C@@H]2[C@H](COC[C@H](O)CN2C(=O)c2ccccn2)O1)NC1CCC1,inactive: 0.991
13,C[C@@H]1CN([C@@H](C)CO)C(=O)Cc2cc(NC(=O)Nc3cccc4ccccc34)ccc2O[C@@H]1CN(C)Cc1ccc(Oc2ccccc2)cc1,inactive: 1.02
14,CNC[C@H]1Oc2ccc(NS(=O)(=O)c3cn(C)cn3)cc2C(=O)N([C@@H](C)CO)C[C@H]1C,inactive: 0.991
15,C[C@@H]1CCCCO[C@@H](CN(C)Cc2ccc3c(c2)OCO3)[C@H](C)CN([C@@H](C)CO)C(=O)c2cc(NC(=O)Nc3ccc(F)cc3)ccc2O1,inactive: 0.993
16,COc1cc2ccc(=O)oc2c(OC)c1OC,inactive: 1.02
17,C[C@@H]1CCCCO[C@@H](CN(C)Cc2ccc(Cl)c(Cl)c2)[C@@H](C)CN([C@@H](C)CO)C(=O)c2cc(NC(=O)Nc3cccc4ccccc34)ccc2O1,inactive: 0.964
18,C[C@H]1CN([C@@H](C)CO)S(=O)(=O)c2ccc(C#CC3(O)CCCC3)cc2O[C@H]1CN(C)C(=O)c1cccnc1,inactive: 0.994
